{"source": "the supplement of paper PMC8728848", "assay_in_all_cases": "glycan array binding signal (z-score within array); higher = stronger binding", "details_in_all_cases": "glycan notation: IUPAC condensed, linker removed", "key": {"[1]": {"test_system": "Man(a1-2)Man(a1-3)[Man(a1-2)Man(a1-6)]Man(a1-6)[Man(a1-2)Man(a1-2)Man(a1-3)]Man(b1-4)GlcNAc(b1-4)GlcNAc", "method_in_brief": "(§1)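 Glycan array binding is given as a within-array Z-score, which can be read as non-binding when negative. The arrays, 3228 of them, came from the Consortium for Functional Glycomics database and were retained only where the protein sequence was available. Z-scores were averaged across arrays of the same protein sequence at different concentrations or buffers and across linkers.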"}, "[2]": {"test_system": "Man(a1-2)Man(a1-3)[Man(a1-2)Man(a1-6)]Man(a1-6)[Man(a1-2)Man(a1-2)Man(a1-3)]Man", "method_in_brief": "as §1"}, "[3]": {"test_system": "Man(a1-2)Man(a1-3)[Man(a1-3)[Man(a1-6)]Man(a1-6)]Man(b1-4)GlcNAc(b1-4)GlcNAc", "method_in_brief": "as §1"}, "[4]": {"test_system": "Man(a1-2)Man(a1-3)[Man(a1-6)]Man(a1-6)[Man(a1-2)Man(a1-3)]Man(b1-4)GlcNAc(b1-4)GlcNAc", "method_in_brief": "as §1"}, "[5]": {"test_system": "Man(a1-2)Man(a1-6)[Man(a1-3)]Man(a1-6)[Man(a1-2)Man(a1-2)Man(a1-3)]Man", "method_in_brief": "as §1"}, "[6]": {"test_system": "Man(a1-3)[Man(a1-6)]Man(a1-6)[Man(a1-3)]Man(b1-4)GlcNAc(b1-4)GlcNAc", "method_in_brief": "as §1"}, "[7]": {"test_system": "Man(a1-3)[Man(a1-6)]Man(a1-6)[Man(a1-3)]Man", "method_in_brief": "as §1"}}, "note": "The full list was thinned out, with the strongest signals kept by preference."}
{"substance": "L-Ficolin (Homo sapiens) (chain not printed)", "values": [{"measurement": "glycan array binding signal (z-score)", "setting": "[1]", "value": -0.486}]}
{"substance": "MBP (Homo sapiens) (chain not printed)", "values": [{"measurement": "glycan array binding signal (z-score)", "setting": "[1]", "value": 0.451}]}
{"substance": "Collectin K1 (Homo sapiens) (chain not printed)", "values": [{"measurement": "glycan array binding signal (z-score)", "setting": "[2]", "value": 13.8}]}
{"substance": "Angiogenin (Homo sapiens) (chain not printed)", "values": [{"measurement": "glycan array binding signal (z-score)", "setting": "[3]", "value": -1.32}, {"measurement": "glycan array binding signal (z-score)", "setting": "[4]", "value": 1.82}]}
{"substance": "NCAM1 (Homo sapiens) (chain not printed)", "values": [{"measurement": "glycan array binding signal (z-score)", "setting": "[5]", "value": 0.08}]}
{"substance": "M-Ficolin Y271F (Homo sapiens) (chain not printed)", "values": [{"measurement": "glycan array binding signal (z-score)", "setting": "[5]", "value": -0.425}]}
{"substance": "M-Ficolin A256V (Homo sapiens) (chain not printed)", "values": [{"measurement": "glycan array binding signal (z-score)", "setting": "[6]", "value": -0.144}]}
{"substance": "Meso764 (Homo sapiens) (chain not printed)", "values": [{"measurement": "glycan array binding signal (z-score)", "setting": "[6]", "value": 0.261}]}
{"substance": "Gal 8 long (Homo sapiens) (chain not printed)", "values": [{"measurement": "glycan array binding signal (z-score)", "setting": "[7]", "value": -0.185}]}
